The supplement of paper PMC7826260
Some of the results follow. The data describe in vitro nicking of single-stranded DNA by Rep domains (1 h at 37 °C, 3 µM enzyme); the outer parts of the 90-letter strands are left off. Uncut reads are compared with the no-enzyme pool on a log2 scale; more negative means more cut, near 0 not cut, and no call is made. Shares of all reads are compared; where an enzyme cuts many sequences, the uncut ones exceed 0.

System: T1, Rep nickase domain of porcine circovirus 2
T1 sequence (Rep 2-116, printed without the tag): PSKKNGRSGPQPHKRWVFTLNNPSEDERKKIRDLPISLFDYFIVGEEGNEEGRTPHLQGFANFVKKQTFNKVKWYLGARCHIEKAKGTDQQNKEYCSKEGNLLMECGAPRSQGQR
Assay: uncleaved DNA left, log2 of reads against the no-enzyme library (log2 ratio); higher = less cleavage (more negative = more Rep cleavage of the k-mer); sequences stand for … in CTCGTCCG…ACCGGAGA
Experimental: (§1)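 A pool of 90-nt single-stranded DNAs with seven random bases just before the constant AC of the nick site (name = the seven bases) was cut by 3 µM recombinant His6-SUMO-tagged Rep nickase domain (300 nM DNA, 50 mM HEPES pH 8.0, 50 mM NaCl, 1 mM MnCl2, 1 h, 37 °C, three replicates). Uncut DNA was amplified and sequenced.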

| Sequence | uncleaved DNA left (log2) |
| --- | --- |
| TAGATTA | -2.71 |
| GGTAGGA | 0.255 |
| TACGACT | -0.12 |
| CTACTCG | 0.155 |
| AAGGAGG | 0.304 |
| AGAGGCT | 0.16 |
| TTTGCGA | 0.0778 |
| ATGGCGC | 0.0306 |
| ATGCGGG | 0.146 |
| CGGAGGT | 0.0164 |
| GCGCCCT | -0.285 |
| TCTGGTC | 0.227 |
| ACGCCGC | 0.0266 |
| TAGTGTG | -0.241 |
| GGGCCCT | 0.104 |
| TGTAGCA | -0.2 |
| GTTAGGA | 0.355 |
| TTACCCG | -2.07 |
| GTAGTCA | 0.0387 |
| GCCATCC | 0.0521 |

| Sequence | uncleaved DNA left (log2) |
| --- | --- |
| TTCGGAT | -0.00415 |
| CGGCCGG | 0.25 |
| GTGGGTG | 0.0792 |
| GCTGGAC | 0.233 |
| TTGAAAT | -0.568 |
| AGTTCAC | -0.0815 |
| TGGCGAT | 0.186 |
| TGAACTG | 0.0881 |
| TCACTGG | 0.0405 |
| AGTTGGG | 0.269 |
| ATCCAGA | 0.133 |
| CACACGC | 0.0846 |
| CAGCTTA | -0.947 |
| ACTGGCT | 0.165 |
| ACCGGCC | 0.0112 |
| GAGCGCG | 0.0157 |
| GTCTGGA | 0.0736 |
| CGTCAAA | -0.0186 |
| ATCATGC | 0.165 |
| GGCATCG | 0.134 |

System: T2, Rep nickase domain of tomato golden mosaic virus
T2 sequence (Rep 1-124, printed without the tag): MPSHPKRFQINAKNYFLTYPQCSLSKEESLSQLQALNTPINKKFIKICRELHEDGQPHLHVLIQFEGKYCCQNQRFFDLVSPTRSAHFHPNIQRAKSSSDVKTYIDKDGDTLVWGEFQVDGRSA
Assay: as above
Experimental: as §1

| Sequence | uncleaved DNA left (log2) |
| --- | --- |
| TAGATTA | 0.0736 |
| GGTAGGA | 0.115 |
| TACGACT | -0.205 |
| CTACTCG | -0.13 |
| AAGGAGG | 0.231 |
| AGAGGCT | 0.145 |
| TTTGCGA | -0.114 |
| ATGGCGC | 0.0142 |
| ATGCGGG | -0.0102 |
| CGGAGGT | -0.0173 |
| GCGCCCT | -0.161 |
| TCTGGTC | 0.0251 |
| ACGCCGC | -0.113 |
| TAGTGTG | -0.0438 |
| GGGCCCT | 0.0665 |
| TGTAGCA | -0.0492 |
| GTTAGGA | 0.241 |
| TTACCCG | -0.0168 |
| GTAGTCA | -0.0286 |
| GCCATCC | -0.0529 |

| Sequence | uncleaved DNA left (log2) |
| --- | --- |
| TTCGGAT | -0.079 |
| CGGCCGG | 0.21 |
| GTGGGTG | -0.0788 |
| GCTGGAC | 0.104 |
| TTGAAAT | -0.0417 |
| AGTTCAC | -0.0747 |
| TGGCGAT | 0.0705 |
| TGAACTG | 0.00786 |
| TCACTGG | -0.0447 |
| AGTTGGG | 0.0831 |
| ATCCAGA | 0.0501 |
| CACACGC | -0.0433 |
| CAGCTTA | 0.196 |
| ACTGGCT | 0.167 |
| ACCGGCC | -0.144 |
| GAGCGCG | -0.0681 |
| GTCTGGA | 0.137 |
| CGTCAAA | 0.0893 |
| ATCATGC | -0.000908 |
| GGCATCG | 0.0628 |

System: T3, Rep nickase domain of tomato yellow leaf curl virus
T3 sequence (Rep 1-136, printed without the tag): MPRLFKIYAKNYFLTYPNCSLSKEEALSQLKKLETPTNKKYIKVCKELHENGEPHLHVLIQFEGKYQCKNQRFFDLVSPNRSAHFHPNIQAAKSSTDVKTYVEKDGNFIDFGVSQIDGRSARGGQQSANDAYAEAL
Assay: as above
Experimental: as §1

| Sequence | uncleaved DNA left (log2) |
| --- | --- |
| TAGATTA | 0.0846 |
| GGTAGGA | 0.0977 |
| TACGACT | -0.114 |
| CTACTCG | -0.0199 |
| AAGGAGG | -0.123 |
| AGAGGCT | -0.0398 |
| TTTGCGA | -0.0179 |
| ATGGCGC | -0.0644 |
| ATGCGGG | -0.0373 |
| CGGAGGT | -0.157 |
| GCGCCCT | -0.0543 |
| TCTGGTC | 0.185 |
| ACGCCGC | -0.0331 |
| TAGTGTG | 0.184 |
| GGGCCCT | 0.0267 |
| TGTAGCA | 0.0738 |
| GTTAGGA | 0.173 |
| TTACCCG | -0.0161 |
| GTAGTCA | -0.00433 |
| GCCATCC | 0.0782 |

| Sequence | uncleaved DNA left (log2) |
| --- | --- |
| TTCGGAT | -0.271 |
| CGGCCGG | 0.173 |
| GTGGGTG | -0.117 |
| GCTGGAC | 0.132 |
| TTGAAAT | 0.203 |
| AGTTCAC | 0.0353 |
| TGGCGAT | 0.0564 |
| TGAACTG | 0.00482 |
| TCACTGG | -0.0747 |
| AGTTGGG | 0.042 |
| ATCCAGA | -0.0301 |
| CACACGC | -0.0128 |
| CAGCTTA | 0.0803 |
| ACTGGCT | 0.16 |
| ACCGGCC | -0.108 |
| GAGCGCG | -0.0913 |
| GTCTGGA | 0.171 |
| CGTCAAA | 0.0659 |
| ATCATGC | 0.0718 |
| GGCATCG | 0.0548 |
